Measured values from PubChem BioAssay AID1461 (National Center for Advancing Translational Sciences (NCATS), 2008).
The campaign covered roughly 220,000 compounds. About 2,300 (1%) were called active. Inconclusive results, whose numbers are uncertain, are shown with a selection of clear calls. Calls follow the shape of the dose curve; as a rule, active = well fitted inhibition curve with a large enough effect; inconclusive = small, poorly fitted or top-dose-only effect, or effect the other way; inactive = no such curve, though single readings can be large or run the other way. Potencies of inconclusive entries are left out as doubtful fits.
Also: nearly all actives have a fitted effect of over 50% in size.
Potency is read from the fitted curve at half-maximal effect; tags tell the direction and shape of the fitted curve.

What follows are molecules tested against Neuropeptide S receptor (Homo sapiens) (UniProt Q6W5P4) (assay: qHTS Assay for Antagonists of the Neuropeptide S Receptor: cAMP Signal Transduction). Conditions: CHO-NPSR cells, cAMP TR-FRET, antagonist mode; series mostly up to 38.3 µM.
Sequence of UniProt Q6W5P4 (Q6W5P4 whole entry, looked up): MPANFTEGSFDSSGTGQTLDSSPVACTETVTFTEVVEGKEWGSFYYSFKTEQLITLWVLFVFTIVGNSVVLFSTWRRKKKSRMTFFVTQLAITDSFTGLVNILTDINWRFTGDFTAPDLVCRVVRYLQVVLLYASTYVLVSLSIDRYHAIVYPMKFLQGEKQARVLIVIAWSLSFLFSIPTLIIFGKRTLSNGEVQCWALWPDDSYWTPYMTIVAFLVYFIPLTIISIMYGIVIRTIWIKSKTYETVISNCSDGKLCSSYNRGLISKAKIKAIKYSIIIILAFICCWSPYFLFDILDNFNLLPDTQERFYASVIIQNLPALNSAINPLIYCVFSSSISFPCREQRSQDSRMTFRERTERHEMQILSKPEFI
With O=[N+]([O-])c1nn(-c2ccccc2)n(O)c1=NCc1ccc2c(c1)OCO2 the Potency was “inactive”. For CC(=O)N1CCCN(Cc2cn(-c3ccc(C)cc3)nc2-c2cccc(C)c2)CC1, the Potency was inconclusive [activator, partial curve]. For Cc1sc(NC(=O)CSc2nnnn2C2CCCC2)c(C#N)c1C, the Potency was “inactive”. In the case of CN1C(CC(=O)c2ccccc2)CCCC1CC(O)c1ccccc1 (stereo not given), the Potency is reported as “inactive”. CC(C)(C)C(=O)Nc1cccc(C(=O)c2cccc(NC(=O)C(C)(C)C)c2)c1 was tested, and the Potency was inconclusive [inhibitor, single point]. For Cc1cc(C(=O)COC(=O)c2cc(O)c3ccccc3c2O)c(C)n1CC1CCCO1 (stereo not given), the Potency was “inactive”. For CCOC(=O)c1ccccc1-n1c(C)cc(C2N=C(N)Nc3nc4ccccc4n32)c1C (stereo not given), the Potency was active: 12.6 µM. For CCOC(=O)c1sc(NC(=O)c2ccc(OC)cc2)nc1C, the Potency was inconclusive [inhibitor, single point]. In the case of Fc1ccc(Sc2cc(Cl)c(-c3ccccc3)nn2)cc1, the Potency is reported as inconclusive [inhibitor, partial curve]. In the case of Oc1ccccc1/C=N/Nc1ccnc(SCc2ccccc2)n1, the Potency is reported as “inactive”. With CCCCCN1CC(O)=C(c2nc(-c3ccc(Cl)cc3)cs2)C1=N the Potency was inconclusive [inhibitor, single point]. For COc1ccc(OC)c(C2Nc3nc4ccccc4n3C(C)=C2C(=O)Nc2ccc(C)cc2C)c1 (stereo not given), the Potency was inconclusive [inhibitor, partial curve, poor fit]. For CCCCC(NC(=O)c1ccccc1)C(=O)OCC(=O)N1c2ccccc2Sc2ccccc21 (stereo not given), the Potency was inconclusive [inhibitor, single point]. For N#C/C(=N\Nc1ccccc1F)c1nc(-c2ccccc2)cs1, the Potency was “inactive”. Cc1cc(Br)c(NC(=O)c2c(-c3c(Cl)cccc3Cl)noc2C)c(Br)c1 was tested, and the Potency was inconclusive [activator, single point]. O=C(OCc1nc2ccccc2s1)c1cccc(S(=O)(=O)N2CCOCC2)c1 was tested, and the Potency was inconclusive [inhibitor, single point]. With CC1=C(C)CS(=O)N(c2ccc(S(N)(=O)=O)cc2)C1 (stereo not given) the Potency was inconclusive [activator, partial curve]. With CCN(CC)CCCN=C(N)N the Potency was inconclusive [activator, single point]. With Cc1c(C(=O)O)cccc1-n1c(C)cc(/C=N/Nc2ccc([N+](=O)[O-])cn2)c1C the Potency was active: 10 µM. In the case of CCCCc1ccc(/C=C2\C(=O)c3ccccc3C(O)=C2C(=O)OCC)cc1, the Potency is reported as inconclusive [inhibitor, partial curve].
